Data: patent US12448369B2 (Edgewise Therapeutics, Inc., priority 2023, dated 2025)
At least one structure is not confirmed: it was looked up by name or label, or the drawing left a doubt.

How the values were obtained:
[1] = target: T1, Porcine ventricle myofibrils (ventricular myosin ATPase) (Sus scrofa, UniProt P79293); experiment: Myofibril ATPase assay, porcine ventricle myofibrils; assay type: biochemical, porcine (Yucatan minipigs); conditions: porcine ventricle myofibrils
T1 construct: Myofibrils from porcine cardiac muscle was isolated from the left ventricle of Yucatan minipigs; tissue Exemplar Genetics; host or cells: left ventricle of Yucatan minipigs, myofibrils prepared in house
T1 sequence (P79293 whole entry): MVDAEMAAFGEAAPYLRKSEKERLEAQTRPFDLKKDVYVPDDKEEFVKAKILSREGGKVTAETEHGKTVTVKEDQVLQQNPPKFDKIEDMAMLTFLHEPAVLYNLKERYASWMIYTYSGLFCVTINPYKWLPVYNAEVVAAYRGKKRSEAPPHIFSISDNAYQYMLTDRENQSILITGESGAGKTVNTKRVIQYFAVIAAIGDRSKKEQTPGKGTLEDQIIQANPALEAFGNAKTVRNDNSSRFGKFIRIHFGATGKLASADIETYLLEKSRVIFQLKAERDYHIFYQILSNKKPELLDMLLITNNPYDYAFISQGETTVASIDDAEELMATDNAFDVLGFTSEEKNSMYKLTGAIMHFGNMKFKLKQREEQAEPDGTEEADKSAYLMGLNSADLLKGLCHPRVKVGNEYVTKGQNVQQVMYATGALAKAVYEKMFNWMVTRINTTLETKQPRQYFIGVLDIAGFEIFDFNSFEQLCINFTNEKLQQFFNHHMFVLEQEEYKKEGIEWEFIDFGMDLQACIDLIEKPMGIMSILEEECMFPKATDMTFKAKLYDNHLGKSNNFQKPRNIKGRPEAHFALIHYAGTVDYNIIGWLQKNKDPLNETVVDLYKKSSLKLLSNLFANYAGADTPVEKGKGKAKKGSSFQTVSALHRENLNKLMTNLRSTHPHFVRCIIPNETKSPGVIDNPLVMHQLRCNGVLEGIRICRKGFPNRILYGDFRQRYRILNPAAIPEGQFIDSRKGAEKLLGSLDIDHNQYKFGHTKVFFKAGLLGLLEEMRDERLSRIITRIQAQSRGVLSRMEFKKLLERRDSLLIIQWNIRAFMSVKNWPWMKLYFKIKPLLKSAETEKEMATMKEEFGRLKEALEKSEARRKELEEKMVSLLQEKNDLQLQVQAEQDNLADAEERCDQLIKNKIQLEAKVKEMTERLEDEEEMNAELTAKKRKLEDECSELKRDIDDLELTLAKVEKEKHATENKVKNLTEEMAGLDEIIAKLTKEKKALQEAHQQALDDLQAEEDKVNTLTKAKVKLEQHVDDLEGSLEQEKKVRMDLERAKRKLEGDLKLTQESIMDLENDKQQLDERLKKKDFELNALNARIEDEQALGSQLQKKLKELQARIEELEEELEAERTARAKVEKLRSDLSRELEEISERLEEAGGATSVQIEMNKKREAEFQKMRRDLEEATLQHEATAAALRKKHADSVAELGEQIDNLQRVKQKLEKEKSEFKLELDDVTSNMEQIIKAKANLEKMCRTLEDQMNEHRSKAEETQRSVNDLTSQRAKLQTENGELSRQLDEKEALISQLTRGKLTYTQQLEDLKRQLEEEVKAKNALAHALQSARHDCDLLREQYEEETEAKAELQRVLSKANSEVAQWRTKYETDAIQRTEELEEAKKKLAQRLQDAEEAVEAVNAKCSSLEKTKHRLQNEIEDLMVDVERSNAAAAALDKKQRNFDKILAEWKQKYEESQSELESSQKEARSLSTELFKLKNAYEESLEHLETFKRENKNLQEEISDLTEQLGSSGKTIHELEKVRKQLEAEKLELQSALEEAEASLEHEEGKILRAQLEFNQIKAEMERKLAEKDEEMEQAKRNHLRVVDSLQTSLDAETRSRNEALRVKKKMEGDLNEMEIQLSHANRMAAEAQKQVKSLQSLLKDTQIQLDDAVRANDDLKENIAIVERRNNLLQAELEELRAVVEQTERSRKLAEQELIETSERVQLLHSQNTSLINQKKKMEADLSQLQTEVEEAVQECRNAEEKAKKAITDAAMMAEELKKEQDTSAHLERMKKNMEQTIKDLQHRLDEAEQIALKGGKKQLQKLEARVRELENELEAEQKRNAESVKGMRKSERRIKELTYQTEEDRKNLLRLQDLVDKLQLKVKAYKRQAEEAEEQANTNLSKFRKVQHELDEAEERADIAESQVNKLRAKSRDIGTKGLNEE
Protocol: (§1) Example 1. Myofibril ATPase Assay
(§2) Myofibril ATPase assays are known in the art to be useful in evaluating small molecules for the treatment of HCM and other cardiac indications. Myosin ATPase activity is assessed by using a coupled reaction system, in which ADP generated by the myosin ATPase function is coupled to the disappearance of NADH through the pyruvate kinase/lactate dehydrogenase (PK-LDH) system. ATPase activity produces ADP, which is used as a substrate for PK to produce pyruvate and regenerate ATP. The pyruvate is then used as a substrate by LDH to oxidize NADH to NAD+. The rate of the reaction is monitored through the time-dependent disappearance of NADH using absorbance at 340 nm, which, when the couple system is in stoichiometric excess, is directly correlated to the ATPase activity of the myosin. Inhibition of ATPase activity by the assayed compounds is indicated by a reduced rate of NADH loss, relative to vehicle-treated controls, over the experimental time window. Activation of ATPase activity by the assayed compounds is indicated by an increased rate of NADH loss, relative to vehicle-treated controls, over the experimental time window. Rabbit Psoas, Porcine atria, and Porcine ventricle are the primary sources of myofibril material.
(§3) Materials: The following stock solutions and reagents were used in the Myofibril ATPase Assay:
(§4) Stock Solutions of pCa buffer. Combine PIPES, CaCl2, and EGTA solutions with water. Adjust pH to 7.0 and bring final volume to 100 mL.
(§5) Buffer A & Buffer B. Prepare buffers A and B according to the table below.
(§6) Myofibril ATPase Assay Procedure: BSA, ATP, NADH, PEP, and DTT solutions were thawed at room temperature, then transferred to ice. Pellet-frozen myofibrils were transferred with approximately twice the required volume into a sufficiently large tube and capped. Myofibrils were thawed by rolling in a water bath for approximately 15 min at room temperature and cooled on ice. Buffers A and B were prepared by adjusting volumes as necessary for required number of wells and stored on ice. 0.5 μL of the compounds to be assayed were added into wells. 25 μL of Buffer A was dispensed into the wells, followed by 25 μL of Buffer B. The wells were measured for absorbance at 340 nm, using a kinetic protocol in which the wells are read every 1.5-2 min for 75 min. Assay data analysis was performed using a python script that filtered the raw data to retain those points falling between a starting and ending time and between a maximum and minimum absorbance, then used the filtered time-domain 340 nm absorbance data in each well to calculate a slope via linear regression analysis in units of mAU/min. Compound slopes were normalized between 100% and 0% activity, where 100% represented the slope of wells containing only compound vehicle, and fit to a 4-parameter logistic model. In addition to the fit parameters, the EC25% values were calculated, relative to the 100% normalized value. Additionally, the Y125 values were calculated for compounds that increased myosin ATP-ase activity. Fit parameters, calculated effective concentrations, filtered raw data, and calculated slopes were exported, in addition to compound-specific graphs of normalized ATPase activity versus concentration in μM. Each value reported in Table 5, Table 6, and Table 7 is either a Y75 value or a Y125 value. Values without a double cross sign, ‡, are Y75 values, which reflect the concentration required to reduce myosin ATP-ase activity by 25% (e.g., Y-axis activity value is 75% of initial value), relative to myosin ATP-ase activity in the absence of exogenous compound.
Cardiac Myofibril Isolation:
Myofibrils from porcine cardiac muscle was isolated from the left ventricle of Yucatan minipigs. Myofibrils were prepared using a method based upon those described in Herrmann et al. (1993) and summarized here. […]

[2] = tested on: Porcine atria myofibrils (atrial myosin ATPase); experiment: Myofibril ATPase assay, porcine atria myofibrils; assay type: biochemical; conditions: porcine atria myofibrils
Protocol: as §1, §2, §3, §4, §5, §6
(§7) Myofibrils from various animals and tissue types were acquired from a variety of sources: rabbit psoas muscle was purchased from Pel-Freez Biologicals (Rogers, AR) and porcine cardiac muscle was purchased from Exemplar Genetics. All myofibrils were prepared using a method based upon those described in Herrmann et al. (1993) and summarized here. […]

[3] = tested on: Rabbit Psoas myofibrils (skeletal myosin ATPase); experiment: Myofibril ATPase assay, rabbit psoas (skeletal) myofibrils; assay type: biochemical; conditions: rabbit psoas myofibrils
Protocol: as §1, §2, §3, §4, §5, §6
Skeletal Myofibril Isolation:
as §7

[4] = Y75 value (75% activity relative to no compound)

SMILES	Ventricular EC25 ([1]; Y75 value (no ‡ mark))	Atrial EC25 ([2]; Y75 value (no ‡ mark))	Skeletal EC25 ([3]; Y75 value (no ‡ mark))	Ventricular EC25 ([1]; Y75 value)	Atrial EC25 [2, 4]	Skeletal EC25 ([3]; Y75 value)
C[C@H](NC(=O)[C@@H](C)c1c(C(F)(F)F)c2c(F)c(F)ccc2[nH]c1=O)c1ccc(F)cc1F (single isomer, unassigned) [compound 104]	1600 nM	70 nM	220 nM	–	–	–
Cc1c(CC(=O)N[C@@H](C)c2ccc(C#N)nn2)c(=O)[nH]c2ccc(F)c(F)c12 [compound 1134]	1350 nM	1020 nM	510 nM	–	–	–
Cc1c(CC(=O)N[C@H](C)c2cnc(C#N)cn2)c(=O)[nH]c2cc(F)ccc12 [compound 1084]	16130 nM	520 nM	1630 nM	–	–	–
Cc1nc(C#N)cnc1[C@H](C)NC(=O)Cc1c(C2CC2)c2c(F)c(F)ccc2[nH]c1=O [compound 1142]	150 nM	420 nM	10 nM	–	–	–
C[C@@H](NC(=O)Cc1cc2c(C(F)(F)F)cccc2[nH]c1=O)c1ncc(C#N)cn1 (single isomer, unassigned) [compound 2011]	25680 nM	4710 nM	1240 nM	–	–	–
Cc1c(CC(=O)N[C@H](C)c2cnc(C#N)cn2)c(=O)[nH]c2cc(F)c(F)cc12 [compound 1102]	6450 nM	6150 nM	370 nM	–	–	–
Cc1nc(C#N)ccc1[C@@H](C)NC(=O)Cc1c(C)c2c(C)c(F)ccc2[nH]c1=O (single isomer, unassigned) [compound 2078]	910 nM	230 nM	560 nM	–	–	–
Cc1c([C@H](C)C(=O)N[C@@H](C)c2ccc(F)cc2F)c(=O)[nH]c2ccnc(C#N)c12 (single isomer, unassigned) [compound 168]	–	–	–	3630 nM	50 nM	100 nM
Cc1nc(C#N)cnc1[C@@H](C)NC(=O)Cc1c(C2CC2)c2c(F)c(F)ccc2[nH]c1=O [compound 1141]	930 nM	2350 nM	450 nM	–	–	–
C[C@H](NC(=O)[C@@H](C)c1cc2c(F)c(F)ccc2[nH]c1=O)c1ncc(C#N)cc1F (relative stereo) [compound 2605, (2S*)-N-[(1S)-1-(5-cyano-3-fluoropyridin-2-yl)ethyl]-2-(5,6-difluoro-2-oxo-1H-quinolin-3-yl)propanamide]	1470 nM	400 nM	400 nM	–	–	–
C[C@H](NC(=O)[C@H](C)c1c(C(F)(F)F)c2c(F)c(F)ccc2[nH]c1=O)c1ccc(F)cc1F (single isomer, unassigned) [compound 105]	6410 nM	350 nM	5340 nM	–	–	–
Cc1c(O)ccc2[nH]c(=O)c(CC(=O)N[C@@H](C)c3ccc(F)cc3F)cc12 [compound 93]	22970 nM	1180 nM	100000 nM	–	–	–
Cc1c(CC(=O)N[C@@H](C)c2ncc(C#N)cn2)c(=O)[nH]c2cc(F)c(F)cc12 (single isomer, unassigned) [compound 2062]	62530 nM	6950 nM	8360 nM	–	–	–
Cc1nc(C#N)cnc1[C@H](C)NC(=O)Cc1c(C)c2cc(F)ccc2[nH]c1=O [compound 1069]	2100 nM	200 nM	100000 nM	–	–	–
Cc1c(CC(=O)N[C@H](C)c2ncc(C#N)cn2)c(=O)[nH]c2cc(F)c(F)cc12 (single isomer, unassigned) [compound 2061]	6960 nM	980 nM	490 nM	–	–	–
Cc1c(C(F)(F)C(=O)N[C@H](C)c2ccc(C#N)cc2F)c(=O)[nH]c2ccnc(C#N)c12 (single isomer, unassigned) [compound 3509]	–	–	–	500 nM	350 nM	150 nM
